The full ranking holds about 33,000 sequences; the median of “E-score (-0.5 to 0.5)” is about -0.012, and the highest 2% start at about 0.29. This is one part of the list.
Each sequence was assayed against T1, Ybr033w (UniProt P38073) (assay: PBM E-score (8-mer binding enrichment) (E-score (-0.5 to 0.5)); higher = stronger / more preferred TF binding; most listed sequences are background and not binding sites). Details: protein concentration: 200 nM; construct: GST-full length.
T1 sequence: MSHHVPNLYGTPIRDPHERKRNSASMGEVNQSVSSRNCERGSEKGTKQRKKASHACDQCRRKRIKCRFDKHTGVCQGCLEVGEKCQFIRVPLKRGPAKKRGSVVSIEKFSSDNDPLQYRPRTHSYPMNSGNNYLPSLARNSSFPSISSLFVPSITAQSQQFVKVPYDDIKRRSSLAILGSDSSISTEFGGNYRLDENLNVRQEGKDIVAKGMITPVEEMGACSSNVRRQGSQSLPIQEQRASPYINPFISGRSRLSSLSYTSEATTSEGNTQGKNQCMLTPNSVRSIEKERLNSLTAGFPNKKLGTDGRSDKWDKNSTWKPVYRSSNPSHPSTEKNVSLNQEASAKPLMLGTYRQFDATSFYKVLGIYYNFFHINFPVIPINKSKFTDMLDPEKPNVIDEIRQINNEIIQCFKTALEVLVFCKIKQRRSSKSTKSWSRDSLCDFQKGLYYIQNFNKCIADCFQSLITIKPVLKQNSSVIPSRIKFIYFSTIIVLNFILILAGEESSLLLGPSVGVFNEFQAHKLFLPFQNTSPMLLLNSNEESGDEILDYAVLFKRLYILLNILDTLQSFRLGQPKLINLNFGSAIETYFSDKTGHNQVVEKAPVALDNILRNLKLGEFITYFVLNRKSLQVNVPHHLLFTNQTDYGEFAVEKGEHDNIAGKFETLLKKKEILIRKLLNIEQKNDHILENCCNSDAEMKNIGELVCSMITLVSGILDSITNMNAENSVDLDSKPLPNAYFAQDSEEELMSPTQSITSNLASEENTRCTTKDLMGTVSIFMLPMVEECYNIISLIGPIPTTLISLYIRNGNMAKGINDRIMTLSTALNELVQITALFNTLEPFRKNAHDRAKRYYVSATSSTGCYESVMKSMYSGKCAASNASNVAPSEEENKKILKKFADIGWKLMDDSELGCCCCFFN
In short: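 For each ungapped eight-base word taken together with its reverse complement, the Universal PBM Analysis Suite assigned an E-score. Binding data came from GST-tagged yeast transcription factors, applied at about 100-200 nM, on universal all-10-mer Agilent arrays made double-stranded by primer extension. Fluorescent anti-GST marked bound protein, and scans were normalised with masliner.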

Sequence | PBM E-score
CGATCGGC | -0.148
GGACTAAA | -0.0918
AATCAGAG | 0.102
AAAGTCGC | 0.105
ATCTATCG | -0.0539
AAGCCCCA | -0.307
ATTTTCTG | 0.0635
ACGGAGCT | -0.171
AGCAAGTC | 0.0884
ATAACTGC | 0.193
ACCGCACA | -0.0964
AAAGGCTA | 0.0506
ACCTATTC | -0.11
GTCATTGA | 0.0912
AAATCGGA | 0.153
GATTCTAA | 0.031
AAGTCCGG | 0.00798
AGTAAGAG | -0.092
TAAACTGA | 0.136
AACATAGG | 0.0261
CACACCGC | -0.0805
GCGTCACA | -0.131
CCTCCAAA | -0.0989
ACGTCGGC | -0.18
ACGCTCGA | -0.0783

Sequence | PBM E-score
GCTGCGCA | -0.0339
AGTTGTAG | 0.205
ACAAGGGA | -0.105
GCTAAGTA | 0.0835
CCTTTGCA | 0.0151
AGCGGCCT | -0.16
AGCTGACA | -0.103
CCGTATTC | -0.0621
GAGAGGGA | -0.289
ATCCCTAC | 0.159
CAATAGAC | 0.00862
AGCTAACA | 0.0799
CCGTTAGG | -0.109
AGGCCAAT | -0.0717
ACATCCCA | 0.0545
GACGCCCA | -0.184
AAGGCGTG | -0.2
CGACCCTC | -0.184
GGCTTTGA | 0.0919
AACTAAGG | 0.0802
CTAATAAA | 0.28
GAGAAGCA | -0.0833
AGGCGAAC | -0.159
TGTGAACA | 0.0644
TACGTAAA | 0.141

Sequence | PBM E-score
GTCGACAC | -0.126
CATCGTAC | 0.0156
CGGGTCAA | -0.0721
CACCTTAA | -0.00695
GTGTTGGA | -0.0271
TGGTCAAA | 0.226
CCAGCCCC | -0.236
AATTATGG | 0.0687
ATATTCAG | 0.1
ATGAGTCA | -0.0786
CCCACCAG | -0.142
ACGGGACG | -0.222
AATCAGGG | -0.103
GTCAGCGA | -0.163
ATGAATTG | 0.246
GCACCCCA | -0.164
AGGTCTAA | 0.063
ACATGCCC | 0.00011
ACAATCGC | 0.115
CCCGTAGA | -0.206
ACCACGGT | -0.168
CAAGTCCG | -0.0949
AAATATGT | 0.252
AAAATACT | 0.301
CCAATGGG | -0.304

Sequence | PBM E-score
AGACCTTA | 0.091
TATAATAA | 0.318
TTTCCAAA | 0.204
AGATTACG | 0.0369
AATTTATG | 0.317
GATTTTGA | 0.161
CACGGCCG | -0.311
CATACGCA | 0.156
AGGACGAC | -0.212
GTTGATGA | 0.207
ACTCATGA | 0.143
CATTCTCA | 0.111
TATATAAA | 0.282
ACCTCACC | -0.0696
CATCCGCA | 0.156
CGACGACG | -0.226
CTTTATTA | 0.191
TGGGTCAA | -0.109
AGGCAAGA | -0.0369
AAACTTAT | 0.379
ACTCGCGC | -0.142
ATCTCTTC | 0.0612
GAGAGTTA | -0.092
CGAAAATA | 0.23
CCATTACC | -0.0903

Sequence | PBM E-score
AGATCAGC | 0.0383
CAAGCTAG | -0.0383
CGCGACGA | 0.0136
AGAGTAGA | 0.0714
AGGTCGCC | -0.249
CAAACACA | 0.241
CACGTTCC | -0.0658
ATGAAGCG | -0.253
CATCTAGC | -0.023
ACCGGTTC | -0.229
AGCGTGAC | -0.158
CAGGAACC | -0.122
CTCTTCCC | -0.162
CACGTCAA | -0.0938
AATTGGTC | 0.156
AGATCTAT | 0.171
ATATCCAT | 0.196
ACGCCATG | -0.0752
AAGCTTGG | -0.0215
AACCACCT | 0.0762
CGCTGGTA | 0.00123
AGGAGGAA | -0.00188
AACGATCG | 0.132
ATACTGGG | -0.198
AACTAGTC | 0.0207

Sequence | PBM E-score
ACCCAAGT | 0.0221
AACAACGC | -0.0677
CGGTCCAG | -0.287
ATATATGA | 0.0895
AATATTAA | 0.349
AGCCTAAT | 0.0669
GACGTACC | -0.0667
CTTTCGTA | -0.0115
ACGCTAGG | -0.26
GCCAGGCA | -0.0766
GTATGATA | 0.234
CACCCTTA | -0.0756
ACGTCAAA | 0.06
CGGGTACC | -0.326
ATCCGTCC | -0.122
GAAACTTC | 0.112
ATTTCCAC | 0.241
ATTAAAGG | 0.193
AGCTCTTG | -0.0846
ACGAACCG | -0.0547
CCCTTACC | -0.131
ACGGCGGC | -0.224
AGTGCTGA | -0.0389
AAGTATCG | 0.0646
CCCAGCCC | -0.342

Sequence | PBM E-score
CCGCTAAA | -0.117
GGATCCAA | 0.0247
GCATTGCC | -0.0687
CGCGGAAG | -0.0837
GGAACGTA | -0.056
AATAACTC | 0.233
AATAGTTC | 0.294
ACCGGTGC | -0.265
CGATCATC | 0.00087
TTGCACAA | 0.129
AGGCTAGG | -0.254
AAGGCGGT | -0.0232
AGCATGTG | 0.013
CATGATGA | 0.114
TACGCGAA | -0.0299
AAGGGGGA | -0.298
AGGTCTTG | -0.128
CGGAGGAA | -0.048
TGGCAACA | 0.0334
ATTGTATA | 0.273
AATCCAGT | 0.15
CAACAGGC | -0.14

Source: the supplement of paper PMC3334620
